Experimental data taken from the RNAGym collection of RNA variant scans (doi:10.1073/pnas.2313332121).
Variants at the floor of the assay are shown more often than the library holds them.

B1: TPR 5TU (parent)
chain: GGAUCUUCUCGAUCUAACAAAAAAGACAAAUCUGCCACAAAGCUUGAGAGCAUCUUCGGAUGCAGAGGCGGCAGCCUUCGGUGGCGCGAUAGCGCCAACGUUCUCAACUAUGACACGCAAAACGCGUGCUCCGUUGAAUGGAGUUUAUCAUG

Variants of: B1
Assay: polymerase ribozyme fitness, log enrichment relative to wild type (log ratio); higher = more active; in vitro selection for triplet polymerase activity
Outline: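 Genotype fitness is the logarithm of its enrichment divided by wild-type enrichment, using inverse-variance-weighted averages of replicates. That logarithm is base 2. Enrichment was measured by Illumina sequencing of input and output libraries from one triplicate in vitro selection round, with frozen incubation at −7 °C, on PCR-built, transcribed mutant libraries of each subunit of a heterodimeric triplet polymerase ribozyme, retaining genotypes with ≥10 input reads and ≥1 read per output.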

| Variant | polymerase ribozyme fitness (log ratio) |
| --- | --- |
| GGAUCUUCUCCAUCUAACAAAAAAGACAAAUCUGCCACAAAGCUUCAGAGCAUCUUCGCAUGCAGAGGCGGCAGCCUUCGGUGGCGCGAUAUCGCCAACGUUCUCAACUAUGACACGCAAAACGCGUGCUCCGUUGAAUGGAGUUUAUCAUG | -3.55 |
| GGAUCUUCUCCAUCUAACAAAAAAGACAAAUCUGCCACAAAGCUUGAGAGCAUCUUCGGAUGCAGAGGCGGCAGCCUUCGGUGGCGCGAUAGCGCCAACGUUCUCAAGUAUGAGACGCAAAACGCGUGCUCCGUUGAAUGGAGUUUAUCAUG | ≤ -4.2 |
| GGAUCUUCUCCAUCUAACAAAAAAGAGAAAUCUGCCACAAAGCUUGAGAGCAUCAUCGGAAGCAGAGGCGGCAGCCUUCGGGGGCGCGAUAGUGCCAACGUUCUCAACUAUGACACGCAAAACGCGUGCUCCGUUGAAUGGAGUUUAUCAUG | ≤ -4.2 |
| GGAUCUUCUCCAUCUAACAAAAAAGACAAAUCUGCCACAAAGCUUGAGAGCAUCUUCGGAUGCAGAGGCGGCAGCCUUCGGUGGUGCGAUAGCGCCAUCGUUUUCAACUAUGACACGCAAAACGCGUGCUCCGUUGAAUGGAGUUUAGCAUG | ≤ -4.2 |
| GGAUCUUCUCCAUGUAACAAAAAAGACAAAUCUGCCACAAAGCAUGAGAGCAUCUUCGGAUGCAGAGGCGGCAGCCUUCAGUGGUGCGAUGGCGCCAACGUUCUCAACUAUGACACGCAAAACGCGUGCUCCGUUGAAUGGAGUUUAUCAUG | ≤ -4.2 |
| GGAUCUUCUCCAUGUAACAAAAAAGACAAAUCUGCCACAAAGCUUGAGAGCAUCUUCGGAUGCAGAGGCGGCAGCCUUCGGUGGCGCGAUAGUGCCAACGUUCUCAACUAUGACACGCAAAACGAGUGCUCCGUUGAAUGGAGUUUAUCAUG | ≤ -4.2 |
| GGAUCUUCUCCAUCUAACAAAAAAGACAAAUCUGCCACAAAGCUUGAGAGCAUCUUCGGAUGCAGAGGCGGCAGCCUUCGGUGGCGCGAUAGAGUCAACGUUCUCAACUAUGACUCGCAAAACGCGUGCUCCCUUGAAUGGAGUUUAUCAUG | ≤ -4.2 |
| GGAUCUUCUCCAUUUAUCAAAAAAGACAAAUCUGCCACAAAGCUUGAGAGCAUCUUCGGAUGCAGAGGCGGCGGCCUUCGGUGGCGAGAUAGCGCCAACGUUCUCAACUAUGACACGCAAAACGCGUGCUCCGUUGAUUGGAGUUUAUCAUG | ≤ -4.2 |
| GGAUCUUCUCCAUCUAACAAAAAAGACAAAUCUGCUACAAAGCUUGAGAGUAUCUUCGGAUGCAGAGGCGGCAGCCUUUGGUGGCGCGCUAGCGCCAACGUUCUCAACUAUGACACGCAAAACGCGUGCUCCGUUGAAUGGAGUUUAUCAUG | ≤ -4.2 |
| GGAUCUUCUCCAUCUAACAAAAAAGACAAAUCUGCCACAAAGCUUGAGAGCAUCUUCGGAUGCAGAGCCGGCAGCAUUCCGUGGCGCGAUAGUGCCAACGUUCUCAACUAUGACACGCAAAACGCGUGCUCCGUUGAAUGGAGUUUAUCAUG | ≤ -4.2 |
| GGAUCUUCUCCAUCUAACAAAAAAGACAAAUCUGUCACAAAGCUUGAGAGCAUCUUCGGAUGCAGAGGCGGCAGCCUUCGGUGGCGCGAUAGCGCCAACGUUCUCAACUAUGACACGCAAAACGCGUGCUCCGUUGAAUGGAGUUUAUCAUG | -2.11 |
| GGAUCUUCUCCAUCUAACAAAAAAGACAAAUCUGCCACAAAGCUUGAGAGCAUCUUCGGAUGCAGAGGCGGCAGCCUUCGGUGGCGUGAUAGCGCCAACGUUCUCAACUAUGACACGCAAAACGCGUGCUCCGUUGAAUGGAGUUUAUCAUG | -2.7 |
| GGAUCUUCUCCAUCUAACAAAAAAGACAAAUUUGCCACAAAGCUUGAGAGCAUCUUCGGAUGCAGAGGAGGCAGCCUUCGGUGGCGCGAUAGCGCCAACGUUCUCAACUAUGACACGCAAGACGCGUGCUCCGUUGAAUGGAGUUUAUCAUG | -4.12 |
| GGAUCUUCUCCAUCUAACAAAAAAGACAAAUCUGCCACAAAGCUUGAGAGCAUCUUCGGAUGCAGAGGCGGCAGCCUUCGGUGGCGCGAUAGCGCCAACGUUCUCAACUAUGACACGCAAAACGGGUGCUCCGUUGAAUGGCGUUUAUCAUG | ≤ -4.2 |
| GGAUCUUCUCCAUCUAACAAAAAAGACAAAUCUGCCACAAAGCUUGAGAGCAUCUUCGGAUGCAGAGGCGGCAGCCUUCGGUGGCGCGAUACCGCCAACGUUCUCAACUAUGACACGCAAAACGCGUGCUCCGUUGAAUAGAGUUUAUUAUG | ≤ -4.2 |
| GGAUCUUCUCCAUCUAACAAAAAAGACAAAUCUGCCACAAAGCUUGAGAGCAUCUUCGGAUGCAGAGGCGGCAACUUUCGGUGGCGCGAUAGGGCCAACGUUCUCAACUAUGGCACGCAAAACGCGUGCUCCGUUGAAUGGAGUAUAUCAUG | ≤ -4.2 |
| GGAUCUUCUCCAUCUAACAAAAAAGACAAAUCUGCCACAAAGCUUAAGAGCAUCUUCAGAUGCAGAGGCGGCAGCCUUCGGUAGCGCGAUAGCGCCAACGUUCUCAACUAUGACACGCAAAACGCGUGCUCCGUUGAAUGGAGUUUAUCAUG | -3.26 |
| GGAUCUUCUCCAUCUAACAAAAAAGACAAAUCUGCCACAAAGCUUGAGAACAUCUACGGAUGCAGAGGCGGCAGCCUUCGGUUGCGCGAUAGAGCCAACGUUCUCAACUAUGACACGCAAAACGCGCGCUCCGUCGAAUGGAGUUUAUCAUG | ≤ -4.2 |
| GGAUCUUCUCCAUCUAACAAAAAAGACAAAUUUGCCACAAAGCUGGAGAGCAUCAUCGGAUGCAGAGGCGGCAGCCUUCGGUGGCGCGACAGCGCCAACGUACUCAACUAUGACACGCAAAACGCGUGCUCCGUUGAAUGGAGUUUAUCAUG | ≤ -4.2 |

| Variant | polymerase ribozyme fitness (log ratio) |
| --- | --- |
| GGAUCUUCUCCAUCUAACAAAAAAGACAAAUCUGCCACAAAGCUUGAGAGCAUCUUCGAAUGCAGAGGCGGCGGCCUUCGGGGGCGCGAUAGCGCCAACGUUCUCAACUAUGACACGCAAAACGCGUGCUCCGUUGAAUGGAGUUUAUCAUG | -2.2 |
| GGAUCUUCUCCAUCUAACAAAAAAGACAAAUCUGCCAAAAAGCUUGAGAGCAUCUUCGAAUGCAGAGGCGGCAGCCUUCGGUGGCGCGAUAGCGCCAACGUUCUCAACUAUGACACGCAAAACGGGUGCUCCGUUGAAUGGAGUUUAUCAUG | -2.58 |
| GGAUCUUCUCCAUCUAACAAAAAAGACAAAUCUGCCACAAAGCUUGAGAGCAUCUUCGGAUGCAGAGGCGGCAGCCUUCGGUGGCGCGAUAGCGCCAACGUUCUUAACUAUGACACGGAAAACGCGUGCUCCGUUGAAUGGAGUUUAUCAUG | -1.92 |
| GGAUCUUCUCCAUCUAACAAAAAAGACAAAUCUGCCACAAAGCUUGAAAGCGUCUUCGGAUGCAGAGGCGGCAGCCUUCGGUGGCGCGAUAGCGCUAACGUUCUCAACUAUGGCACGUAAAACGCGUGCUCCGUUGAAUGUCGUUUAUCAGG | ≤ -4.2 |
| GGAUCUUCUCCAUCUAACAAAAAAGACAAAUCUGCCACAAAGCUUGAGAGCAUUUUCGGAUGCAGAGGCGGCAGCCUUCGGUGGUGCGAUAGCGCCAACGUUCUCAACUAUGACGCGCAAAACGCGUGCUCCGUUGAAUGGAGUUUAUCAUG | -3.49 |
| GGAUCUUCUCCAUCUAACAAAAAAGACAAAUCUGCCAUAAAGCUUGAGAGCAUCUUCGGAUGCAGAGGCGGCAGCCUUAGGUGGCGCGAUAGCGUCAACGUUCUCAACUAUGACACGCAAAACGCGUGCUCCGUUGAAUGGAGUUUAUCAUG | ≤ -4.2 |
| GGAUCUUCUCCAUCUAACAAAAAAGACAAAUCUGCUACAAAGCUUGAGAGCAUCUUCGGAUGCAGAGGCGGCAGCCUUCGGUGGCGCGAUAGCGCCAACGUUCUCAACUAUGACACGCAAAACGCGUGCUCCGUUGAAUGCAGUAUAUCAUG | ≤ -4.2 |
| GGAUCUUCUCCAUCUAACAAAAAAGACAAAUCUGCCACAAAGCUUGAAAGUAUCUUCGGAUGCAGAGCCGGCAGCCUUCGGUGGCUCGAUAGCGCCUAGGUUCUCAACUAUGACACGCAAAACGCGUGCUCCAUUGAAUGGAGUUUAUCAUG | ≤ -4.2 |
| GGAUCUUCUCCAUCUAACAAAAAAGACAAAUCUGCCAUAAAGCUUGAGAGCAUCUUCGGAUGCAGAGGCGGCAGCCUUCGGUGGGGCGAUAGCGCCAACGUUCUCAACUAUGACACGCAAAACGCGUGCUCCGUCGAAUGGAGUUUAUCAUG | ≤ -4.2 |
| GGAUCUUCUCCAUUUAACAAAAAAGACAAAUCUGCCACAAAGCUUGAGAGCAUCGUCGGAUGCAGAGGCGGCAGCCUUCGUUGCCACUAUAGCGCCAACGUUCUCAACUAUGACACGCAAUACGCGUGCUCCGUGGAAUGGAGUUUAUCAUG | ≤ -4.2 |
| GGAUCUUCUCCAUCUAACAAAAAAGACAAAUCUGCCACAAAGCUUGAGAGCAUCUUCGGAUGCAGAGGCGGCAGCCUUCGGUGGAGCGAUAGCGCCAACGUUCUCAACUAUGACACGCAAAACGCGUGCUCCAUUGAAUGGAGUUUAUCAUG | ≤ -4.2 |
| GGAUCUUCUCCAUCUAACAAAAAAGACAAAUGUGCCACAAAGCUUGAGAACAUCUUCGGAUGCAGAGGUGGCAGCCUUCGGUGGCGCGAUAGGGCCAACGUGCUCAACUAUGACACGCAAAACGCGUGCUCCGUUGAAUGGAGUUUAUCAUG | ≤ -4.2 |
| GGAUCUUCUCCAUCUAACAAAAAAGACAAAUGUGCCACAAAGCUUGAGAACAUCUUCGGAUGCAGAGGCGGCAGCCUUCGGUGGCGCGAUGGCGCCAACGUUCUCAACUAUGACACGCAAAACGCGUGCUCCGUUGAAUGGAGUUUAUCAUG | ≤ -4.2 |
| GGAUCUUCUCCAUCUAACAAAAAAGACAAAUCUGCCACAAAGCUUGAGAUCAUCUUCGGAUGCAGAGGCGGCAGCCUUCGGUGGCGCGAUAGCGCGAACGUUCUCAACUAUGACACGCAAGACGCGUGCUCCGUUGAAUCGAGUUUAUCAUG | ≤ -4.2 |
| GGAUCUUCUCCAUCUAACAAAAAAGACAAAUCUGCCACAAAGCUUGAGAGUAUCUUCGGAUGCAGAGGCGGCAGCCUUAGGUGGCGCGAUAGCGCCAACGUUCUCAACUAUGACACGCAAAACGCUUGCUCCGUUGAAUGGAGUUUAUCAUG | ≤ -4.2 |
| GGAUCUUCUCCAUCUAACAAAAAAGACAAAUGUCCCACAAAGCUUGAGAGCAUCUUCGGAUGCAGAGGCGGCAGCCUUCGGUGGCGCCAUAGCGCCAACGUUCUCGAAUUUGACACGCAAAACGCGUGCUCCGUUGAAUGGAGUUUAUGAUG | ≤ -4.2 |
| GGAUCUUCUCCAUCUAACAAAAAAGACAAAUCUGCCACAAAGCUUGAGAGCAUCUUCGGAUGUAGAGGCGGCAGCCUUCGGUGGUUCGAUAGCGCCAACGUUCUCAACUAUGAUACGCAAAACGCGUGCUCCGUUGAAUGGAGUUUAUCAUG | ≤ -4.2 |
| GGAUCUUCUCCAUCUAACAAAAAAGACAAAUCUGCCACAAAGUUUGAGAGCAUCUUCGGAUGCAGAGGCGGCAGCCUUCGGUGGCGCGAUAACGCCAACGUUCUCAACUAUGACACGCAAAACGCGUGCUCCGUUGAGUGGAGUUUAUCAUG | ≤ -4.2 |
| GGAUCUUCUCCAUCUAACAAAAAAGACAAAUCUGCCACAAAGCUUGAGAGUAUCUUCGGAUGCAGAGGCGGCAGCCUUCGGUGGCGCGAUAGCGACAACGUUCUCAACUAUGACACGCAAAACGCGAGCUCCGUUGAAUGGAGUUUAUCAUG | ≤ -4.2 |
